Further values from the same series stand in other lists.
Key:
Rat [1] = assay: concentration in brain after dosing; conditions: 20 min; dosed: 2-Methyltetrahydrofuran; 10 mg/kg; oral; Male; F344
Rat [2] = assay: concentration in brain after dosing; conditions: 20 min; dosed: 2-Methyltetrahydrofuran; 10 mg/kg; iv; Female; F344
Rat [3] = assay: concentration in plasma after dosing; conditions: 3 h; dosed: 2-Methyltetrahydrofuran; 10 mg/kg; iv; Male; F344
Rat [4] = assay: concentration in plasma after dosing; conditions: 2 min; dosed: 2-Methyltetrahydrofuran; 10 mg/kg; iv; Male; F344
Rat [5] = assay: concentration in brain after dosing; conditions: 2 h; dosed: 2-Methyltetrahydrofuran; 30 mg/kg; oral; Female; F344
Rat [6] = assay: concentration in plasma after dosing; conditions: 1.5 h; dosed: 2-Methyltetrahydrofuran; 30 mg/kg; oral; Female; F344
Rat [7] = assay: concentration in plasma after dosing; conditions: 6 h; dosed: 2-Methyltetrahydrofuran; 100 mg/kg; oral; Female; Harlan Sprague Dawley
Rat [8] = assay: concentration in brain after dosing; conditions: 2 h; dosed: 2-Methyltetrahydrofuran; 10 mg/kg; oral; Female; F344
Rat [9] = assay: concentration in plasma after dosing; conditions: 20 min; dosed: 2-Methyltetrahydrofuran; 10 mg/kg; iv; Male; F344
Rat [10] = assay: concentration in brain after dosing; conditions: 1.5 h; dosed: 2-Methyltetrahydrofuran; 100 mg/kg; oral; Male; Harlan Sprague Dawley
Rat [11] = assay: concentration in plasma after dosing; conditions: 0.5 h; dosed: 2-Methyltetrahydrofuran; 30 mg/kg; oral; Male; F344
Rat [12] = assay: concentration in brain after dosing; conditions: 4 min; dosed: 2-Methyltetrahydrofuran; 30 mg/kg; oral; Female; F344
Rat [13] = assay: concentration in plasma after dosing; conditions: 6 h; dosed: 2-Methyltetrahydrofuran; 100 mg/kg; oral; Female; Harlan Sprague Dawley; remark: listed apart in the source
Rat [14] = assay: concentration in brain after dosing; conditions: 0.75 h; dosed: 2-Methyltetrahydrofuran; 100 mg/kg; oral; Female; Harlan Sprague Dawley
Rat [15] = assay: concentration in brain after dosing; conditions: 2 min; dosed: 2-Methyltetrahydrofuran; 10 mg/kg; iv; Female; F344
Rat [16] = assay: concentration in plasma after dosing; conditions: 20 min; dosed: 2-Methyltetrahydrofuran; 100 mg/kg; oral; Female; Harlan Sprague Dawley
Rat [17] = assay: concentration in plasma after dosing; conditions: 0.5 h; dosed: 2-Methyltetrahydrofuran; 30 mg/kg; oral; Female; F344
Rat [18] = assay: concentration in brain after dosing; conditions: 1 h; dosed: 2-Methyltetrahydrofuran; 30 mg/kg; oral; Female; F344
Rat [19] = assay: concentration in brain after dosing; conditions: 2 min; dosed: 2-Methyltetrahydrofuran; 10 mg/kg; iv; Male; F344
Rat [20] = assay: concentration in plasma after dosing; conditions: 2 h; dosed: 2-Methyltetrahydrofuran; 10 mg/kg; oral; Male; F344
Rat [21] = assay: concentration in plasma after dosing; conditions: dosed: Bromochloroacetic acid, 80 mg/kg, iv, Female, Harlan Sprague-Dawley
Rat [22] = assay: concentration in plasma after dosing; conditions: dosed: Fluorotelomer alcohol 8+2, 160 mg/kg, oral, Female, Harlan Sprague Dawley
Rat [23] = assay: concentration in plasma after dosing; conditions: 12 h; dosed: Fluorotelomer alcohol 8+2; 80 mg/kg; oral; Female; Harlan Sprague Dawley
Rat [24] = assay: concentration in plasma after dosing; conditions: 1 h; dosed: Fluorotelomer alcohol 8+2; 80 mg/kg; oral; Female; Harlan Sprague Dawley
Rat [25] = assay: concentration in plasma after dosing; conditions: dosed: Formamide, 600 mg/kg, oral, Female, Harlan Sprague Dawley
Rat [26] = assay: concentration in plasma after dosing; conditions: dosed: Formamide, 90 mg/kg, iv, Male, Harlan Sprague Dawley
Rat [27] = assay: concentration in plasma after dosing; conditions: dosed: Formamide, 90 mg/kg, iv, Male, Harlan Sprague Dawley; remark: listed apart in the source
Rat [28] = assay: concentration in plasma after dosing; conditions: dosed: Formamide, 90 mg/kg, iv, Male, Harlan Sprague Dawley; remark: listed apart in the source
Rat [29] = assay: concentration in plasma after dosing; conditions: dosed: Formamide, 600 mg/kg, oral, Male, F344
Rat [30] = assay: concentration in plasma after dosing; conditions: 2 h; dosed: Formamide; 30 mg/kg; iv; Female; F344
Rat [31] = assay: concentration in plasma after dosing; conditions: dosed: Formamide, 600 mg/kg, oral, Female, Harlan Sprague Dawley; remark: listed apart in the source
Rat [32] = assay: concentration in plasma after dosing; conditions: dosed: Formamide, 300 mg/kg, oral, Female, Harlan Sprague Dawley
Rat [33] = assay: concentration in plasma after dosing; conditions: 2 min; dosed: Pyridine; 10 mg/kg; oral; Male; Harlan Sprague Dawley
Rat [34] = assay: concentration in plasma after dosing; conditions: dosed: Pyridine, 25 mg/kg, oral, Female, Harlan Sprague-Dawley
Rat [35] = assay: concentration in plasma after dosing; conditions: 4 h; dosed: Pyridine; 50 mg/kg; oral; Male; Harlan Sprague Dawley
Rat [36] = assay: concentration in plasma after dosing; conditions: 1 h; dosed: Pyridine; 10 mg/kg; oral; Male; Harlan Sprague Dawley
Rat [37] = assay: concentration in plasma after dosing; conditions: 9 h; dosed: Pyridine; 200 mg/kg; oral; Female; F344
Rat [38] = assay: concentration in plasma after dosing; conditions: 2 h; dosed: Pyridine; 50 mg/kg; oral; Female; F344

CC1CCCO1 (stereo not drawn) [2-Methyltetrahydrofuran]
concentration in brain (Rat [1]): 3.24 µg/g | concentration in brain (Rat [2]): 3.88 µg/g | concentration in plasma (Rat [3]): 65.7 ng/mL | concentration in plasma (Rat [4]): 18800 ng/mL | concentration in brain (Rat [5]): 1.8 µg/g | concentration in plasma (Rat [6]): 3580 ng/mL | concentration in plasma (Rat [7]): 2590 ng/mL | concentration in brain (Rat [8]): 0.0568 µg/g | concentration in plasma (Rat [9]): 7190 ng/mL | concentration in brain (Rat [10]): 33.9 µg/g | concentration in plasma (Rat [11]): 20600 ng/mL | concentration in brain (Rat [12]): 5.42 µg/g | concentration in plasma (Rat [13]): 6020 ng/mL | concentration in brain (Rat [14]): 50.4 µg/g | concentration in brain (Rat [15]): 10.9 µg/g | concentration in plasma (Rat [16]): 48200 ng/mL | concentration in plasma (Rat [17]): 18000 ng/mL | concentration in brain (Rat [18]): 8.08 µg/g | concentration in brain (Rat [19]): 10.2 µg/g | concentration in plasma (Rat [20]): 119 ng/mL

O=C(O)C(Cl)Br (stereo not drawn) [Bromochloroacetic acid]
concentration in plasma (Rat [21]; 1 h): 18300 ng/mL | concentration in plasma (Rat [21]; 2 h): 1050 ng/mL

OCCC(F)(F)C(F)(F)C(F)(F)C(F)(F)C(F)(F)C(F)(F)C(F)(F)C(F)(F)F [Fluorotelomer alcohol 8+2]
concentration in plasma (Rat [22]; 0.25 h): 147 ng/mL | concentration in plasma (Rat [22]; 6 h): 1610 ng/mL | concentration in plasma (Rat [23]): 39.5 ng/mL | concentration in plasma (Rat [24]): 715 ng/mL

NC=O [Formamide]
concentration in plasma (Rat [25]; 1.5 h): 746000 ng/mL | concentration in plasma (Rat [25]; 30 h): 216000 ng/mL | concentration in plasma (Rat [26]; 5 h): 98900 ng/mL | concentration in plasma (Rat [26]; 72 h): 2600 ng/mL | concentration in plasma (Rat [27]; 0.25 h): 79700 ng/mL | concentration in plasma (Rat [27]; 24 h): 35600 ng/mL | concentration in plasma (Rat [28]; 5 min): 134000 ng/mL | concentration in plasma (Rat [28]; 36 h): 9800 ng/mL | concentration in plasma (Rat [29]; 8 h): 664000 ng/mL | concentration in plasma (Rat [29]; 12 h): 642000 ng/mL | concentration in plasma (Rat [30]): 34400 ng/mL | concentration in plasma (Rat [31]; 0.25 h): 476000 ng/mL | concentration in plasma (Rat [31]; 5 h): 697000 ng/mL | concentration in plasma (Rat [32]; 8 h): 387000 ng/mL | concentration in plasma (Rat [32]; 12 h): 316000 ng/mL

c1ccncc1 [Pyridine]
concentration in plasma (Rat [33]): 5130 ng/mL | concentration in plasma (Rat [34]; 2 h): 19800 ng/mL | concentration in plasma (Rat [34]; 14 h): 11700 ng/mL | concentration in plasma (Rat [35]): 21500 ng/mL | concentration in plasma (Rat [36]): 2910 ng/mL | concentration in plasma (Rat [37]): 46500 ng/mL | concentration in plasma (Rat [38]): 21400 ng/mL

Reference: EPA's CvTdb concentration-time database
